Data published in PubChem BioAssay AID488969 (Vanderbilt High Throughput Screening Facility, 2010).
Over roughly 110,000 compounds, “z-score” has its median near -0.1; the highest 2% begin near 2. This is one part of the list. Active and inactive are the calls of the source.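 How the source made its calls: active means z-score in the third read window above 3 or below -3; inactive means the rest.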

molecular target: Metabotropic glutamate receptor 8 (Rattus norvegicus) (UniProt P70579); test: mGluR8 Gi/Go-coupled signaling modulation – cell-based, rat, thallium flux, HTS, primary screen (AID 488969); settings: HEK293 rat mGluR8, GIRK (G protein-gated inwardly rectifying potassium channel) thallium flux, FluoZin2; at 10 µM; stronger effect = higher value; submaximal glutamate (EC20) added with thallium
UniProt P70579, sequence (P70579 whole entry, looked up): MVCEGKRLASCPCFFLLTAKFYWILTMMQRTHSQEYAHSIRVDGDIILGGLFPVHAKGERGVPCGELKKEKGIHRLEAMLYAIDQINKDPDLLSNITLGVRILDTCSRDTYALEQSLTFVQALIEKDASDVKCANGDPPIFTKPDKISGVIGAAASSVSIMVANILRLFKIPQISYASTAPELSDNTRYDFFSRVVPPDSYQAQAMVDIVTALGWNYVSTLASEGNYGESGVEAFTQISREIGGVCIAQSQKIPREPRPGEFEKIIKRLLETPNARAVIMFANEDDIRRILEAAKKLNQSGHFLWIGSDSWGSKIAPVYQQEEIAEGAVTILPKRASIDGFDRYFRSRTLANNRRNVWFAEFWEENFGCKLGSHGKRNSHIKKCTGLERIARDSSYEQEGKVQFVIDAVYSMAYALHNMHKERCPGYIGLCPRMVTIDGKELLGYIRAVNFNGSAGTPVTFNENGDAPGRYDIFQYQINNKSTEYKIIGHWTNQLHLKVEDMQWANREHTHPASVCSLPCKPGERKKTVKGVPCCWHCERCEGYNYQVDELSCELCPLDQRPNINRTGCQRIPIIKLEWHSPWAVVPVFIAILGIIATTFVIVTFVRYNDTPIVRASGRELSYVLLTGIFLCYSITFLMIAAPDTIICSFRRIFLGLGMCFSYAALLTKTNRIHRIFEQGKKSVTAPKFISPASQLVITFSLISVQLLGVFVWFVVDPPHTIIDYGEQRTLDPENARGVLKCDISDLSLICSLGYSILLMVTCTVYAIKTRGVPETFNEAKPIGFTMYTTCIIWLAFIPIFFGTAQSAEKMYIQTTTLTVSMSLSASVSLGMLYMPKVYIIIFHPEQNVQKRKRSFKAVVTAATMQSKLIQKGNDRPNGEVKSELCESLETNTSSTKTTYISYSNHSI

Structure (SMILES) | z-score
Cc1c(-c2ccccc2)[n+](=O)c2c(n1[O-])CCCCC2 | -0.0223
O=C(NCc1ccco1)c1ccccc1-c1ccc(C(F)(F)F)cc1 | -0.173
Clc1ccc(Oc2nc(N3CCOCC3)nc(N3CCOCC3)n2)cc1 | -0.176
CCCN1C(=O)/C(=c2\s/c(=C3\C=Cc4ccccc4N3CC)c(=O)n2-c2ccccc2)SC1=S | -0.345
C=CCn1c(SCc2ccccc2)nc(O)cc1=O | 2.19
CN1CCN(S(=O)(=O)c2cccc(S(=O)(=O)c3cccc(S(=O)(=O)N4CCN(C)CC4)c3)c2)CC1 | active: 14
COCc1cc(C)nc(OCC(=O)N/N=C\c2cc(C)n(-c3cccc(C(F)(F)F)c3)c2C)c1C#N | -0.0391
CN1CCN(CCCNC(=O)c2cc3c(-c4ccc(Cl)cc4)nn(C)c3s2)CC1 | -0.206
CCc1nc2c(sc3nc4c(cc32)COC(C)(C)C4)c(=O)n1Cc1ccccc1 | -0.115
O=C1CCCc2ccccc2N1Cc1ccccc1Cl | -0.206
Nc1cc(C(F)(F)F)ccc1C(=O)O | -0.284
Cc1ccc(CNC(=O)COC(=O)c2ccc(Cl)c(N)c2)cc1 | -0.283
COc1ccccc1N1CCN(Cc2ccco2)CC1 | -0.814
O=C(Cn1nc(-c2ccc(Cl)cc2)ccc1=O)NCC1CCCO1 (stereo not given) | -0.244
CCOC(=O)CCSc1nc(C(C)(C)C)cc(C(F)(F)F)c1C#N | 0.0143
c1ccc(N=C(c2cccs2)N2CCOCC2)cc1 | 0.533
O=C(COc1ccc2ccccc2c1)NNC(=O)Cc1ccccc1 | -0.148
COc1ccc(OC)c(NS(=O)(=O)c2ccc(Cl)s2)c1 | 0.483
CCc1ccc(CCC(=O)Nc2ccccc2C(=O)O)o1 | -0.597
Cc1ccc(S(=O)(=O)NCC(=O)OC(C)C(=O)Nc2ncc(Cl)cc2Cl)cc1 (stereo not given) | -0.407
COCC(=O)/C=C1\Sc2ccccc2N1C | 1.82
CCOc1ccccc1NC(=O)C1CCCN(C(=O)Nc2ccccc2)C1 (stereo not given) | -0.284
CC(NC(=O)c1cccc(Cn2cc([N+](=O)[O-])cn2)c1)c1ccc(C(C)(C)C)cc1 (stereo not given) | 0.495
O=[N+]([O-])c1cccc2ccc(/C=C/c3ccc(C(F)(F)F)cc3)nc12 | -0.154
S=c1[nH]nc(COc2ccccc2)n1/N=C/C(Cl)=C/c1ccccc1 | -0.26
Cc1nc2ncnn2c(N2CCN(c3cccc(C(F)(F)F)c3)CC2)c1C | 0.118
Cn1ccnc1SCC(=O)Nc1ccc2nc(SCC(=O)NC3CC3)sc2c1 | -0.00819
CCOC(=O)Cc1c(C)nc2c(-c3ccc(OC)cc3)c(C)nn2c1C | -0.695

Structure (SMILES) | z-score
O=c1oc2ccccc2c(Nc2ccc3ncccc3c2)c1[N+](=O)[O-] | -0.178
O=C(Nc1cccc(F)c1)c1sc(Cl)nc1-c1ccccc1 | -0.763
CCCCN(C)c1nc(-c2ccco2)c2c(c1C#N)CC(C)(C)OC2 | 0.00143
CN(C)CCn1c(NC(=O)c2ccc(Cl)cc2)nc2ccccc21 | 0.381
O=C(Nc1ccccc1)NC1(C(=O)N2CCN(C(=O)c3ccco3)CC2)CCCCC1 | -0.122
CC(=O)c1cccc(NC(=O)C(OC(=O)c2cccc(S(=O)(=O)N(C)c3ccccc3)c2)c2ccccc2)c1 (stereo not given) | 0.518
COc1cc2cc3c(N)c(C(=O)NCc4ccco4)sc3nc2cc1OC | -0.4
O=C(CSCc1ccccc1Br)NC1CC1 | -0.111
CCCCN(CCCC)CCn1cnc2c([nH]c3ccc(OC)cc32)c1=O | 0.258
Cc1ccc(C(=O)NC(=S)NCC(=O)c2ccccc2)cc1 | -0.021
Cc1cccc(C)c1NC(=O)N1CCN(c2nc3ccccc3s2)CC1 | 0.0476
CN(C)S(=O)(=O)c1ccc(S(=O)(=O)N2CCCC2)cc1 | -0.0148
O=C(NCc1cccnc1)c1cccc(C(F)(F)F)c1 | -0.793
O=c1[nH]c(=O)n(Cc2ccco2)c2c1C(C(F)(F)F)(C(F)(F)F)N=C(C1CCCCC1)N2 | 0.667
Cc1cccc(N2C(=O)CC(Sc3nc(C)c4c(n3)CCCC4)C2=O)c1 (stereo not given) | 1.35
CCOC(=O)c1cc2c(nc1NC(=S)Nc1ccccc1)CC(C)(CC)OC2 (stereo not given) | 0.172
CC(C)c1ccc(CC(C)C2C3=C(CCCC3=O)OC3=C2C(=O)CCC3)cc1 (stereo not given) | -0.387
COc1ccc(OC)c(NC(=O)C2CCN(c3nc(C)cc(C)n3)CC2)c1 | 0.896
Cc1cc(/C=C(\C#N)C(=O)NC2CCCCCC2)c(C)[nH]1 | -0.0314
CCN(CC)S(=O)(=O)c1ccc(NC(=O)c2cc(-c3cccs3)nc3ccccc23)cc1 | -0.245
Cc1cc(N2CCCCC2)n2ncc(-c3ccc(Cl)cc3)c2n1 | -0.365
CCCCCNC1=CC(=O)CC(c2ccccc2)C1 (stereo not given) | -0.123
Fc1ccc(Cn2ccc(-c3cnc(-c4ccccc4)s3)n2)cc1 | -0.508
Nc1c(-c2ccc(Cl)cc2)cnn1C1CCS(=O)(=O)C1 (stereo not given) | -0.761
CCOc1ccc(CN(C(=O)c2cc3ccccc3oc2=O)C2CC2)cc1 | -0.506
CCOc1cccc2sc(=NC(=O)c3ccc(S(=O)(=O)N4CCOCC4)cc3)n(C)c12 | 0.0157
CCOC(=O)N1CCN(CC(O)c2ccc3c(c2)CCN3)CC1 (stereo not given) | -0.451
